Where a chain is given by its changes, count along the chain named. In names and notes the source's numbering stands. No constants are given. Whether binding was seen depends on the method and setting. In cells and extracts the contact can be indirect. Some entries that bind do so weakly or less than the wild type. For some of these results: Tags and fused reporters may be left off the sequences shown. Values belong to the molecule of their own block, whether it stands above or below them.
What was measured:
[1] = target: mouse p75^NTR wild type, transfected in NIH3T3 cells (mouse) (UniProt Q9Z0W1); assay: co-IP; p75NTR immunoprecipitated from NIH3T3 cells overexpressing p75NTR and RIP2, treated with scrambled or RhoGDI siRNA, with or without PMA; blot for RIP2
[2] = target: mouse p75^NTR K303A, transfected in NIH3T3 cells (mouse) (UniProt Q9Z0W1); assay: co-IP; competition: p75NTR immunoprecipitated from NIH3T3 cells transfected with p75NTR (WT or K303A), Myc-RIP2 and RhoGDI WT or S34D in increasing doses; blots for RhoGDI, RIP2 and p75NTR
[3] = target: mouse p75^NTR wild type, transfected in NIH3T3 cells (mouse) (UniProt Q9Z0W1); assay: as above
[4] = target: p75 neurotrophin receptor (p75^NTR), endogenous in cerebellar granule neurons (mouse (endogenous in P7 CGNs)) (UniProt Q9Z0W1); assay: co-IP; as a1, CGNs treated with PMA, alone or with NGF, for 30 min; blot for RIP2
[5] = target: p75 neurotrophin receptor (p75^NTR), endogenous in cerebellar granule neurons (mouse (endogenous in P7 CGNs)) (UniProt Q9Z0W1); assay: co-IP; p75NTR immunoprecipitated from lysates of cultured P7 wild-type mouse CGNs, blots for endogenous RhoGDI or RIP2; cells untreated or treated with PMA, MAG or NGF
[6] = target: mouse p75^NTR wild type, transfected in NIH3T3 cells (mouse) (UniProt Q9Z0W1); assay: co-IP; as a3, the arm of Figure 3E treated with vehicle (no PMA)
[7] = target: mouse p75^NTR K282A/K285A double mutant (mouse) (UniProt Q9Z0W1); assay: co-IP; p75NTR (or its JXT-GST fusion) immunoprecipitated from lysates of NIH3T3 cells co-transfected with p75NTR and Flag-RhoGDI constructs, blot for Flag; baseline or after PMA, Gö6976 or NGF
[8] = target: mouse p75^NTR K303A, transfected in NIH3T3 cells (mouse) (UniProt Q9Z0W1); assay: as above
[9] = target: mouse p75^NTR wild type, transfected in NIH3T3 cells (mouse) (UniProt Q9Z0W1); assay: as above
[10] = target: p75 neurotrophin receptor (p75^NTR), endogenous in cerebellar granule neurons (mouse (endogenous in P7 CGNs)) (UniProt Q9Z0W1); assay: co-IP; as a1, CGNs treated with the PKC inhibitor Gö6976 (1 µM), alone or with MAG
[11] = target: GFP-tagged p75^NTR wild type, lentiviral, in p75^NTR knock-out CGNs (mouse) (UniProt Q9Z0W1); assay: proximity ligation; in situ PLA with antibodies to RhoGDI and p75NTR (ANT-011) in fixed p75NTR knock-out CGNs transduced with lentivirus for p75NTR WT or K303A
[12] = target: HA-tagged p75^NTR wild type, electroporated into p75^NTR knock-out CGNs (mouse) (UniProt Q9Z0W1); assay: co-IP; HA-tagged p75NTR immunoprecipitated from p75NTR knock-out P7 CGNs electroporated with p75NTR WT or K303A; blot for endogenous RhoGDI; with or without PMA
[13] = target: p75 neurotrophin receptor (p75^NTR), endogenous in cerebellar granule neurons (mouse (endogenous in P7 CGNs)) (UniProt Q9Z0W1); assay: co-IP; p75NTR immunoprecipitated from lysates of cultured P7 wild-type mouse CGNs, blots for endogenous RhoGDI or RIP2; cells untreated or treated with PMA, MAG or NGF; remark: listed apart in the source
[14] = target: p75 neurotrophin receptor (p75^NTR), endogenous in cerebellar granule neurons (mouse (endogenous in P7 CGNs)) (UniProt Q9Z0W1); assay: co-IP; p75NTR immunoprecipitated from lysates of P7 wild-type CGNs; control or phospho-Ser34 RhoGDI peptide added to the lysate at 30 μM for 30 min at 4 °C before the antibody; blot for RhoGDI
[15] = target: mouse p75^NTR K303D (mouse) (UniProt Q9Z0W1); assay: co-IP; p75NTR (or its JXT-GST fusion) immunoprecipitated from lysates of NIH3T3 cells co-transfected with p75NTR and Flag-RhoGDI constructs, blot for Flag; baseline or after PMA, Gö6976 or NGF
[16] = target: mouse p75^NTR V246N (cleavage-resistant, γ-secretase mutant variant) (mouse) (UniProt Q9Z0W1); assay: as above
[17] = target: p75^NTR K303A and p75^NTR K346A/E349A (KEA) expressed together in HEK293 cells (receptor dimer) (mouse) (UniProt Q9Z0W1); assay: co-IP; p75NTR immunoprecipitated from HEK293 cells transfected with Flag-RhoGDI and HA-tagged or untagged p75NTR WT, K303A or K346A/E349A, alone or in combination; blot for Flag
[18] = target: p75 neurotrophin receptor (p75^NTR), endogenous in cerebellar granule neurons (mouse (endogenous in P7 CGNs)) (UniProt Q9Z0W1); assay: co-IP; as a7; the synthetic phospho-Ser34 peptide (30 μM) as competitor against p75NTR in the lysate; only the binder purified

Chains of the proteins cited; added tags and fusions are not shown. Lines headed by an entry give the natural chain unless they say otherwise; changes in a name come on top. A line that says so, or that is headed by a name, gives the form on record, which may keep a tag or linker. Residues count along the entry.
p75 neurotrophin receptor (p75^NTR), endogenous in cerebellar granule neurons (mouse (endogenous in P7 CGNs)) (Q9Z0W1, residues 32-427): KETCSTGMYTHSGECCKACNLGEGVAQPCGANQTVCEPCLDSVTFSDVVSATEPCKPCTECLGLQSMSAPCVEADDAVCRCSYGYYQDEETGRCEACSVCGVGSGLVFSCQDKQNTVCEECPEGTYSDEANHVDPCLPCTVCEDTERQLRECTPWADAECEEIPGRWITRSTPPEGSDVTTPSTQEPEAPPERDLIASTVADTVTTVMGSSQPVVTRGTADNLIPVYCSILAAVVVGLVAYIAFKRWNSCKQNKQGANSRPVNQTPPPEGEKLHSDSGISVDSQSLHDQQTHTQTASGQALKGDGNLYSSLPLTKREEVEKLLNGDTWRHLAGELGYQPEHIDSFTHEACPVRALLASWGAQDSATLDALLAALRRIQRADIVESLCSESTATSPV
mouse p75^NTR K303A, transfected in NIH3T3 cells (Q9Z0W1, form named): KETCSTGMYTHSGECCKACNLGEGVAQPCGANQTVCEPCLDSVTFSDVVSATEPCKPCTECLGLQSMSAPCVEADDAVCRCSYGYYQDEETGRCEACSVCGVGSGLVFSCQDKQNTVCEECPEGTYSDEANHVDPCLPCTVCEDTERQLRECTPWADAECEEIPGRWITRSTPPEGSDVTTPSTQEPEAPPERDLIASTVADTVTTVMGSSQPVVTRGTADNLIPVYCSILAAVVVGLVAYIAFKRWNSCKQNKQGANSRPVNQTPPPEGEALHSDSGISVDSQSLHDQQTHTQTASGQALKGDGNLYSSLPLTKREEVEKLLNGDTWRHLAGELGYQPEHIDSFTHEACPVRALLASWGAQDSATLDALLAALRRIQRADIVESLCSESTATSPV
mouse p75^NTR K282A/K285A double mutant (Q9Z0W1, form named): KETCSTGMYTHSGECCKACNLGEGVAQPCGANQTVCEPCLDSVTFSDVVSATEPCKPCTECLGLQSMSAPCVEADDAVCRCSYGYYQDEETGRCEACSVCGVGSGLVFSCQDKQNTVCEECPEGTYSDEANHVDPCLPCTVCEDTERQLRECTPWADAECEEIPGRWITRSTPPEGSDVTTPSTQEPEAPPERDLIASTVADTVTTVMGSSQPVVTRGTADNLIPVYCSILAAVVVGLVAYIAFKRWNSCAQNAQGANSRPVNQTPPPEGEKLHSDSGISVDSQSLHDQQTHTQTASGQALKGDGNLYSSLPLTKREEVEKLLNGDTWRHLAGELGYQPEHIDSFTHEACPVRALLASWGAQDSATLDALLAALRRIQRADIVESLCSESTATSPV
mouse p75^NTR K303D (Q9Z0W1, form named): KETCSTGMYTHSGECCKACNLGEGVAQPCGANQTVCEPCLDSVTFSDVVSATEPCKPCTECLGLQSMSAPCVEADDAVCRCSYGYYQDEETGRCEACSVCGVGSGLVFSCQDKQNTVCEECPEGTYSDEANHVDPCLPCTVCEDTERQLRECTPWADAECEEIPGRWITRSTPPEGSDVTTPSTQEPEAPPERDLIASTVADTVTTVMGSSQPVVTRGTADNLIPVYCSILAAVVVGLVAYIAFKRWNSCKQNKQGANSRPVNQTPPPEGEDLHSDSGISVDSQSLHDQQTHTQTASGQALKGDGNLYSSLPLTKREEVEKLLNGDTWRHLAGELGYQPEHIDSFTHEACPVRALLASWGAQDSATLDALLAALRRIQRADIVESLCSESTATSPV
mouse p75^NTR V246N (cleavage-resistant, γ-secretase mutant variant) (Q9Z0W1, form named): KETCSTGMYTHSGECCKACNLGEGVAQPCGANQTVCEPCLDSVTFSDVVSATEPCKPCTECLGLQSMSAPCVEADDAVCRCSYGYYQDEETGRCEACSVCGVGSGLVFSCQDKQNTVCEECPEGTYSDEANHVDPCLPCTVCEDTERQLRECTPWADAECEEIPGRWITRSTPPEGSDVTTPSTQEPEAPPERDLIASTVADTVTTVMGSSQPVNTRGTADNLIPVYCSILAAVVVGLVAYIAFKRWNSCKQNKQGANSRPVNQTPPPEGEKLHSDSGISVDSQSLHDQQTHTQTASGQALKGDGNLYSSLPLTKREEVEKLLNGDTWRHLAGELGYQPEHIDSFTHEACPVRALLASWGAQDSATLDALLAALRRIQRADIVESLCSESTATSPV
UniProt P58801: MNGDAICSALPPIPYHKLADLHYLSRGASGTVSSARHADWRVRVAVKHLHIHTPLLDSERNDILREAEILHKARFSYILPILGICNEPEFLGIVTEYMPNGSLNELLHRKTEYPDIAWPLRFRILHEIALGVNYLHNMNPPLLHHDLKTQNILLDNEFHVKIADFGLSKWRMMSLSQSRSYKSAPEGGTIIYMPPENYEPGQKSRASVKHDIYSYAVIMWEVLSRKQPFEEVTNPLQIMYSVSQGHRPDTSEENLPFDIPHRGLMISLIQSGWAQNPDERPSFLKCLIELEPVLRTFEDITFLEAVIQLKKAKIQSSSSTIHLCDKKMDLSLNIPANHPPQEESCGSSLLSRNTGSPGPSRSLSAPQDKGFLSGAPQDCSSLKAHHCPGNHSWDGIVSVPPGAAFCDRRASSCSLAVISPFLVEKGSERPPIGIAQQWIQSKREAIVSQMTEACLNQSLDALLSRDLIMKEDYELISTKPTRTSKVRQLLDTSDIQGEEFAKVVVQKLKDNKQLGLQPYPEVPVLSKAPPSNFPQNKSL

binding [1]: binds | binding [2]: binds | binding [3]: binds
Molecule: mouse Myc-RIP2 (from UniProt P58801 1-539)

binding [5]: binds
Molecule: RIP2, endogenous in cerebellar granule neurons (from UniProt P58801 1-539)
binding [4]: no binding (condition: CGNs treated with PMA)

binding [7]: binds | binding [8]: no binding | binding [9]: binds
B1: RhoGDI-59: the 59 N-terminal residues of RhoGDI fused to GST, Flag-tagged (domain or fragment, UniProt Q99PT1 1-59)
chain: MAEQEPTAEQLAQIAAENEEDEHSVNYKPPAQKSIQEIQELDKDDESLRKYKEALLGRV
binding [6]: no binding (condition: without PMA (vehicle))

binding [9]: binds
B2: RhoGDI-59 S34D (GST fusion, Flag-tagged) (domain or fragment, UniProt Q99PT1 1-59)
chain: B1 chain with S34D

binding [9]: no binding
B3: RhoGDI-59 S34A (GST fusion, Flag-tagged) (domain or fragment, UniProt Q99PT1 1-59)
chain: B1 chain with S34A

binding [7]: binds | binding [8]: binds | binding [9]: binds
B4: Flag-tagged RhoGDI lacking the N-terminal domain (RhoGDI-∆59) (domain or fragment, UniProt Q99PT1 60-204)
chain: AVSADPNVPNVIVTRLTLVCSTAPGPLELDLTGDLESFKKQSFVLKEGVEYRIKISFRVNREIVSGMKYIQHTYRKGVKIDKTDYMVGSYGPRAEEYEFLTPMEEAPKGMLARGSYNIKSRFTDDDKTDHLSWEWNLTIKKEWKD

binding [11]: binds | binding [12]: binds | binding [13]: binds | binding [14]: binds
B5: Rho GDP-dissociation inhibitor (RhoGDI), endogenous in cerebellar granule neurons (protein, UniProt Q99PT1 1-204)
chain: MAEQEPTAEQLAQIAAENEEDEHSVNYKPPAQKSIQEIQELDKDDESLRKYKEALLGRVAVSADPNVPNVIVTRLTLVCSTAPGPLELDLTGDLESFKKQSFVLKEGVEYRIKISFRVNREIVSGMKYIQHTYRKGVKIDKTDYMVGSYGPRAEEYEFLTPMEEAPKGMLARGSYNIKSRFTDDDKTDHLSWEWNLTIKKEWKD
binding [10]: no binding (condition: CGNs treated with Gö6976 (1 µM))

binding [3]: binds | binding [9]: binds
B6: mouse Flag-RhoGDI S34D (protein, UniProt Q99PT1 1-204)
chain: B5 chain with S34D

binding [9]: binds weakly
B7: mouse Flag-RhoGDI S34A (protein, UniProt Q99PT1 1-204)
chain: B5 chain with S34A

binding [9]: binds
B8: mouse Flag-RhoGDI S96D (protein, UniProt Q99PT1 1-204)
chain: B5 chain with S96D

binding [15]: binds
B9: mouse Flag-RhoGDI S34K (protein, UniProt Q99PT1 1-204)
chain: B5 chain with S34K

binding [3]: binds | binding [7]: binds | binding [16]: binds | binding [9]: binds
B10: mouse Flag-RhoGDI wild type, transfected in NIH3T3 cells (protein, UniProt Q99PT1 1-204)
chain: B5 chain

binding [17]: binds
B11: Flag-RhoGDI, transfected in HEK293 cells (protein, UniProt Q99PT1 1-204)
chain: B5 chain

binding [9]: binds
B12: mouse Flag-RhoGDI S96A (protein, UniProt Q99PT1 1-204)
chain: B5 chain with S96A

binding [18]: binds
B13: phospho-Ser^34 RhoGDI peptide (Cys-PAQKpSIQEI) (peptide)
peptide: CPAQKSIQEI
modifications: phosphoserine (pS; Ser34 of RhoGDI)

From PMC10933337, “RhoGDI phosphorylation by PKC promotes its interaction with death receptor p75^NTR to gate axon growth and neuron survival” (EMBO Reports, 2024)
